Calls of active or inactive are those of the source. Unless noted, calls follow the shape of the dose curve; as a rule, active = well fitted curve in the direction sought with a large enough effect in the repeat runs; inconclusive = weak or mixed curves; inactive = no such curve, though single readings can be large; an effect the other way counts as inactive or inconclusive.
What was measured:
[1] = qHTS assay for small molecule agonists of the p53 signaling pathway (AID 651631; calls by dose curve; also: nearly all actives have a fitted effect of over 15% in size; as to activation: % is scaled to controls: 0 for no effect and ±100 for the full control effect); conditions: HCT-116 p53RE-bla reporter, beta-lactamase FRET ratio, 16 h; activation: at 73.3 µM (top of the series) unless noted
In short: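 Agonist mode screen using a stably integrated beta-lactamase gene under p53 response elements in HCT-116 cells. Compound exposure lasts 16 h at 37 °C; fluorescence intensity is measured following 2 h FRET substrate loading.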

[2] = qHTS assay for small molecule disruptors of the mitochondrial membrane potential (AID 720635); conditions: HepG2 mitochondrial membrane potential, Mito-MPS dye ratio; ratio activity, negative = MMP loss: at 83.2 µM (top of the series) unless noted; as to ratio activity, negative = MMP loss: % is scaled to controls: 0 for no effect and ±100 for the full control effect
In short: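 Mitochondrial membrane potential tracked with Mito-MPS dye, red aggregates (ex 540/em 590 nm) against green monomers (ex 490/em 535 nm). Compound treatment 1 hr at 37C, dye 30 min in HepG2.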

[3] = molecular target: Glucocorticoid receptor (Homo sapiens) (UniProt P04150); assay: qHTS assay to identify small molecule agonists of the glucocorticoid receptor (GR) signaling pathway (AID 720691; active = well fitted activation curve with a large enough effect in the signal ratio in the repeat runs, not every such curve was filed as active; inconclusive = weak or mixed curves, or effect the other way; inactive = no such curve, though single readings can be large or run the other way; the % refers to the signal ratio); conditions: GR-bla HeLa, beta-lactamase reporter ratio, 18 h; activation: at 62.4 µM (top of the series) unless noted
Chain of UniProt P04150 (P04150 whole entry, looked up): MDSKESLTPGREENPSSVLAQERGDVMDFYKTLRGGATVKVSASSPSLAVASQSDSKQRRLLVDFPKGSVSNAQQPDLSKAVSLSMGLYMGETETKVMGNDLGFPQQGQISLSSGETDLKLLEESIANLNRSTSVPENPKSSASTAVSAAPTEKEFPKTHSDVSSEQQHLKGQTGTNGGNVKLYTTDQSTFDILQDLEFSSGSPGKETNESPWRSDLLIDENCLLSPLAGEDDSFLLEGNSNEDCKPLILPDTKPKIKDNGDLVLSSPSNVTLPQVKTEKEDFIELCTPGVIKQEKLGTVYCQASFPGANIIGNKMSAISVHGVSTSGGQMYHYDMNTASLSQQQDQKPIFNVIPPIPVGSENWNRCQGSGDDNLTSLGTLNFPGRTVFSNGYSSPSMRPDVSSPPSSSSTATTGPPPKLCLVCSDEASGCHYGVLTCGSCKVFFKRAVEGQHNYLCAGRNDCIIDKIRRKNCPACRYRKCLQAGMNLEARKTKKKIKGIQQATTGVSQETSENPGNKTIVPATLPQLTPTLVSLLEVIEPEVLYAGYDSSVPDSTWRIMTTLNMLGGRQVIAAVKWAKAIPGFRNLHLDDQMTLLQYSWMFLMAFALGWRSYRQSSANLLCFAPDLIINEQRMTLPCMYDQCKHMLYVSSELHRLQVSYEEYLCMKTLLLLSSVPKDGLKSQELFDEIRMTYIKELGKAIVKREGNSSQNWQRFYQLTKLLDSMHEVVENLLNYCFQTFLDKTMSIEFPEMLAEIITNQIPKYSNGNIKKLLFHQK
In short: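 HeLa GR-bla reporter line; cells pre-incubated 4 h, compound in DMSO 18 h at 37 C; LiveBLAzer B/G FRET substrate 2 h RT; fluorescence intensity read-out.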

[4] = molecular target: Glucocorticoid receptor (Homo sapiens) (UniProt P04150); assay: qHTS assay to identify small molecule antagonists of the glucocorticoid receptor (GR) signaling pathway (AID 720692; active = well fitted inhibition curve with a large enough effect in the signal ratio in the repeat runs, not every such curve was filed as active; inconclusive = weak or mixed curves, or effect the other way; inactive = no such curve, though single readings can be large or run the other way; the % refers to the signal ratio; as to activity change, negative = inhibition: % is scaled to controls: 0 for no effect and ±100 for the full control effect); conditions: GR-bla HeLa, beta-lactamase FRET ratio, dexamethasone-stimulated, 18 h; activity change, negative = inhibition: at 58.5 µM (top of the series) unless noted
In short: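 Read-out: beta-lactamase FRET substrate fluorescence, 2 h at room temperature, in HeLa cells stably carrying a GRE-driven bla reporter. Compounds were co-incubated with 5 nM dexamethasone agonist (final) for 18 h at 37 C.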

[5] = qHTS assay to identify small molecule antagonists of the androgen receptor (AR) signaling pathway - cell viability counter screen (AID 743033; also: nearly all actives have a fitted effect of over 45% in size)
[6] = molecular target: Androgen receptor (Homo sapiens) (UniProt P10275); assay: qHTS assay to identify small molecule antagonists of the androgen receptor (AR) signaling pathway (AID 743035; active = well fitted inhibition curve with a large enough effect in the signal ratio in the repeat runs, not every such curve was filed as active; inconclusive = weak or mixed curves, or effect the other way; inactive = no such curve, though single readings can be large or run the other way; the % refers to the signal ratio; as to activity change, negative = inhibition: % is scaled to controls: 0 for no effect and ±100 for the full control effect); conditions: HEK293 AR-UAS-bla, R1881-stimulated, beta-lactamase FRET, 16 h; activity change, negative = inhibition: at 58.5 µM (top of the series) unless noted
Chain of UniProt P10275 (P10275 whole entry, looked up): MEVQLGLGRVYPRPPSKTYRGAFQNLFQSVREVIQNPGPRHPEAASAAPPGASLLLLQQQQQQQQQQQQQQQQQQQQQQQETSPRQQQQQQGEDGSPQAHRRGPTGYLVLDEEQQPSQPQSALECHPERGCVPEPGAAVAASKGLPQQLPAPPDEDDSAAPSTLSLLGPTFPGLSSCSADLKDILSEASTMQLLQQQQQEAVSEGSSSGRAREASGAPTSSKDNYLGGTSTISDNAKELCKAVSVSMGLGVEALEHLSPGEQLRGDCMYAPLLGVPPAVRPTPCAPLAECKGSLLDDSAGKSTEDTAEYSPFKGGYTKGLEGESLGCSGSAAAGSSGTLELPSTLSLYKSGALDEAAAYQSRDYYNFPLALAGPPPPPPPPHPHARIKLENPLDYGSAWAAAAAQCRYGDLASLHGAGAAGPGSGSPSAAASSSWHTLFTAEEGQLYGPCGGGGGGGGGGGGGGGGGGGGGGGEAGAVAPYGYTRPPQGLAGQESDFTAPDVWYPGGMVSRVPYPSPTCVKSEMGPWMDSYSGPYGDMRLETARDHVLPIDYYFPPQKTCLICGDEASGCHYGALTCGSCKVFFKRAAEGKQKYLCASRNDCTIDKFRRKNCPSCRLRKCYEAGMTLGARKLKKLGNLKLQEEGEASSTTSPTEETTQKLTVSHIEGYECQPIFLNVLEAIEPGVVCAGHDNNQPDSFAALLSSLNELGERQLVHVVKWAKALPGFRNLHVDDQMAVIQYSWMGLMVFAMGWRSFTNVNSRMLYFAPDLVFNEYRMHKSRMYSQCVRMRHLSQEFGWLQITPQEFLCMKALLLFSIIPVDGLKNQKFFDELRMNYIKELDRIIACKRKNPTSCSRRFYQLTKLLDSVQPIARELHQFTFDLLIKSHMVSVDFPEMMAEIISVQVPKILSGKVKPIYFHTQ
In short: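 AR-bla HEK293 reporter cells; 4 h settle at 37C/5% CO2; compound + R1881 agonist, 16 h at 37C; LiveBLAzer B/G FRET substrate 2 h RT; fluorescence intensity read. qHTS format.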

[7] = molecular target: Androgen receptor (Homo sapiens) (UniProt P10275); assay: qHTS assay to identify small molecule agonists of the androgen receptor (AR) signaling pathway (AID 743036; active = well fitted activation curve with a large enough effect in the signal ratio in the repeat runs, with a control signal flat, not every such curve was filed as active; inconclusive = weak or mixed curves, or effect the other way; inactive = no such curve, though single readings can be large or run the other way; the % refers to the signal ratio); conditions: HEK293 AR-UAS-bla GripTite, beta-lactamase FRET ratio, 16 h; activation: at 62.4 µM (top of the series) unless noted
In short: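 Quantitative HTS of the Tox21 10K library in HEK293 cells bearing a stably integrated UAS-controlled beta-lactamase reporter. Compound exposure lasted 16 h at 37C. Reporter activity was detected by FRET substrate fluorescence after 2 h at room temperature.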

[8] = molecular target: Androgen receptor (Homo sapiens) (UniProt P10275); assay: qHTS assay to identify small molecule antagonists of the androgen receptor (AR) signaling pathway using the MDA cell line (AID 743042; also: nearly all actives have a fitted effect of over 55% in size)
In short: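 Antagonist mode: compounds plus R1881 agonist added to MDA-kb2 AR-luc cells, incubated 16 h at 37C. Luciferase reporter luminescence quantified, with multiplexed CellTiter-Fluor readout for cell viability.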

[9] = system: thyroid hormone receptor (rat, GH3 cells); assay: qHTS assay to identify small molecule agonists of the thyroid receptor (TR) signaling pathway (AID 743066; calls by dose curve); conditions: GH3.TRE-Luc cells, TR agonist luciferase, 24 h; activation: at 83.9 µM (top of the series) unless noted
[10] = molecular target: Estrogen receptor (Homo sapiens) (UniProt P03372); assay: qHTS assay to identify small molecule antagonists of the estrogen receptor alpha (ER-alpha) signaling pathway (AID 743069; active = well fitted curve in the direction sought with a large enough effect in the signal ratio in the repeat runs, not every such curve was filed as active; inconclusive = weak or mixed curves, or effect the other way; inactive = no such curve, though single readings can be large or run the other way; the % refers to the signal ratio); conditions: HEK293 ER-alpha-UAS-bla, beta-lactamase ratio, antagonist mode; activity, negative = inhibition: at 69.4 µM (top of the series) unless noted
Chain of UniProt P03372 (P03372 whole entry, looked up): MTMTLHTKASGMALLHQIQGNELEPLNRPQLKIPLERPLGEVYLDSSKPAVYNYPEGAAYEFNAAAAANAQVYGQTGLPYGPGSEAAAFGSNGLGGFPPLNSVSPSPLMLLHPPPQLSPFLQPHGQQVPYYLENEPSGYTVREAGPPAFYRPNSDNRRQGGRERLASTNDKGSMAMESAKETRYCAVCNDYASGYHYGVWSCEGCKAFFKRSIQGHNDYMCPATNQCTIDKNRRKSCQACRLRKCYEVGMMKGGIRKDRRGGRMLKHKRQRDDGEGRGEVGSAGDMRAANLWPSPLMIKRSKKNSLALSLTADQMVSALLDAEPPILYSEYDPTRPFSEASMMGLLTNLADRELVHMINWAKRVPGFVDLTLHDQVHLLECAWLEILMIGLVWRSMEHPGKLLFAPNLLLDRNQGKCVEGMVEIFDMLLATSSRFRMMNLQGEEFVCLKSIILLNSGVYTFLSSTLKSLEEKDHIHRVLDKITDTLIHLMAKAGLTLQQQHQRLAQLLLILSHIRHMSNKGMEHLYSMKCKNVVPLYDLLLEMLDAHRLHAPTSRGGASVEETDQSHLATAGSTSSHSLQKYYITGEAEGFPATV
In short: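 Antagonist mode: compounds in DMSO were co-added with 17beta-estradiol to ER-alpha-bla HEK293 cells (2% charcoal-stripped serum) and left 18 h at 37C. Reporter inhibition was measured as FRET fluorescence after 2 h LiveBLAzer substrate at room temperature.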

[11] = qHTS assay to identify small molecule antagonists of the estrogen receptor alpha (ER-alpha) signaling pathway - cell viability counter screen (AID 743074; calls by dose curve;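 also: HEK293 cells carrying ER-alpha-UAS-bla reporter stimulated with 17beta-estradiol; nearly all actives have a fitted effect of over 45% in size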)
[12] = molecular target: Estrogen receptor (Homo sapiens) (UniProt P03372); assay: qHTS assay to identify small molecule agonists of the estrogen receptor alpha (ER-alpha) signaling pathway (AID 743075; calls by dose curve;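 also: HEK293 GripTite cells with ER-alpha and UAS-driven beta-lactamase reporter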); conditions: HEK293 ER-alpha-UAS-bla, beta-lactamase FRET ratio, 18 h; activation: at 70.1 µM (top of the series) unless noted
[13] = molecular target: Estrogen receptor (Homo sapiens) (UniProt P03372); assay: qHTS assay to identify small molecule agonists of the estrogen receptor alpha (ER-alpha) signaling pathway using the BG1 cell line (AID 743079); conditions: BG1Luc4E2 cells, ERE-luciferase agonist, 22 h; activation: at 70.3 µM (top of the series) unless noted; also: nearly all actives have a fitted effect of over 20% in size
[14] = qHTS assay to identify small molecule antagonists of the estrogen receptor alpha (ER-alpha) signaling pathway using the BG1 cell line (AID 743080; calls by dose curve;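 also: BG1 cells stimulated with 17beta-estradiol alongside compound; nearly all actives have a fitted effect of over 25% in size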); conditions: BG1Luc4E2 ERE-luciferase antagonist mode, luminescence; activity change, negative = inhibition: at 70.3 µM (top of the series) unless noted
In short: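 Luciferase inhibition measured with ONE-Glo after 30 min at RT in BG1Luc4E2 cells given test compounds and 17beta-estradiol for 21.5 h at 37 C; CellTiter-Fluor viability read in the same wells beforehand.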

[15] = qHTS assay to identify small molecule antagonists of the estrogen receptor alpha (ER-alpha) signaling pathway using the BG1 cell line - cell viability counter screen (AID 743081); conditions: BG1Luc4E2 viability, CellTiter-Fluor, 22 h; activity change, negative = cytotoxicity: at 70.3 µM (top of the series);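 also: compound given together with 17beta-estradiol as the ER stimulus; nearly all actives have a fitted effect of over 45% in size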
Aromatase (Homo sapiens) = Aromatase (Homo sapiens) (UniProt P11511); assay: qHTS assay to identify aromatase inhibitors (AID 743083); also: nearly all actives have a fitted effect of over 55% in size
Chain of UniProt P11511 (P11511 whole entry, looked up): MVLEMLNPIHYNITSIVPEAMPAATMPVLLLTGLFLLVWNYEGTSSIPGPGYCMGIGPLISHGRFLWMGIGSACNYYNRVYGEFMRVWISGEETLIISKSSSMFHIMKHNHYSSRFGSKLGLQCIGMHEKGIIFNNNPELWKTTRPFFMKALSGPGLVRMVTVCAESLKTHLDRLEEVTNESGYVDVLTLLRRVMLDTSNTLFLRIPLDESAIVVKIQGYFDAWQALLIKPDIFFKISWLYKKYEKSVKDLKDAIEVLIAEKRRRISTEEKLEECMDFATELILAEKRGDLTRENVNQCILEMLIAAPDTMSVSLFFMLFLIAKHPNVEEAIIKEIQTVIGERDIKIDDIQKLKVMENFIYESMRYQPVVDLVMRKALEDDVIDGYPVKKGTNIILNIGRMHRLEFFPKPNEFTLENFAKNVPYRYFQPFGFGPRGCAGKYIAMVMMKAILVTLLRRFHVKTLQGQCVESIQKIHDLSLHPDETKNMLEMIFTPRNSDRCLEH

[16] = qHTS assay to identify aromatase inhibitors - cell viability counter screen (AID 743084); conditions: MCF-7 aro ERE viability, CellTiter-Fluor, 24 h; activity change, negative = cytotoxicity: at 70.3 µM (top of the series);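 also: cells stimulated with testosterone during compound exposure; nearly all actives have a fitted effect of over 55% in size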
[17] = molecular target: Peroxisome proliferator-activated receptor gamma (Homo sapiens) (UniProt P37231); assay: qHTS assay to identify small molecule agonists of the peroxisome proliferator-activated receptor gamma (PPARg) signaling pathway (AID 743094; active = well fitted activation curve with a large enough effect in the signal ratio in the repeat runs, not every such curve was filed as active; inconclusive = weak or mixed curves, or effect the other way; inactive = no such curve, though single readings can be large or run the other way; the % refers to the signal ratio); conditions: HEK293H PPARg-UAS-bla, beta-lactamase FRET ratio, 17 h; activation: at 57 µM (top of the series) unless noted
Chain of UniProt P37231 (P37231 whole entry, looked up): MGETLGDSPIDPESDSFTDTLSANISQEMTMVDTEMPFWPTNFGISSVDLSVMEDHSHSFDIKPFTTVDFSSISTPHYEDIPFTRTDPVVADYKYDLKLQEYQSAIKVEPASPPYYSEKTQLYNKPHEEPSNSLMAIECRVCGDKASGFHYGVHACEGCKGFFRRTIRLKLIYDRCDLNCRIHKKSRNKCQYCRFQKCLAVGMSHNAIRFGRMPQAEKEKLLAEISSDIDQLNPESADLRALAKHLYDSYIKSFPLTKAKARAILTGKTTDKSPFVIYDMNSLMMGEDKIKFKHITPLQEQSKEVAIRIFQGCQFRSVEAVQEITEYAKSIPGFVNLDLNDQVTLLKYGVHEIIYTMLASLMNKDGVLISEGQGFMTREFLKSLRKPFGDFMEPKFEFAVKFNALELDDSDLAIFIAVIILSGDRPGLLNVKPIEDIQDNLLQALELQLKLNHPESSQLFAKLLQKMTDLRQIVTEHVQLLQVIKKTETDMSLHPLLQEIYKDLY
In short: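 HEK293H PPARg-bla cells, 5 h settle at 37C/5% CO2; compound (DMSO) 17 h, 37C; B/G FRET substrate 1 h RT; fluorescence intensity read-out. qHTS format.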

[18] = qHTS assay for identifying genotoxic compounds that show differential cytotoxicity against isogenic chicken DT40 cell lines with known DNA damage response pathways - Rev3 mutant cell line (AID 743014); conditions: chicken DT40 Rev3-/- viability, CellTiter-Glo, 40 h; activity, negative = cytotoxicity: at 68.4 µM (top of the series); also: nearly all actives have a fitted effect of over 55% in size
[19] = qHTS assay for small molecule agonists of the p53 signaling pathway - cell viability (AID 651633; calls by dose curve; also: nearly all actives have a fitted effect of over 30% in size)
In short: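 Viability counter-read: CellTiter-Glo luminescence (30 min, room temperature) in the same p53RE-bla plates. These plates had been exposed to compounds for 16 h at 37 C.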

[20] = qHTS assay to identify small molecule antagonists of the thyroid receptor (TR) signaling pathway (AID 743065); also: nearly all actives have a fitted effect of over 55% in size
In short: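 Antagonism measured as loss of luciferase signal in GH3 cells stably carrying a TRE-luciferase reporter, co-treated with compound and T3 (1 nM final) for 23.5 h at 37 C. Viability was read in the same well by CellTiter-Fluor.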
Potency is read from the fitted curve at half-maximal effect; tags tell the direction and shape of the fitted curve or compound fluorescence and quenching.

COC(=O)[C@]12CCC(C)(C)C[C@H]1[C@H]1C(=O)C=C3[C@@]4(C)C=C(C#N)C(=O)C(C)(C)[C@@H]4CC[C@@]3(C)[C@]1(C)CC2
Potency [1]: inconclusive: 2.66 µM [cytotoxic, full curve] | Potency [2]: active: 3.76 µM | Potency [3]: inconclusive: 13.4 µM [cytotoxic, full curve] | Potency [4]: inconclusive: 19 µM [cytotoxic, partial curve] | Potency [5]: active: 4.25 µM | Potency [6]: inconclusive: 4.77 µM [rising, full curve] | Potency [7]: inconclusive: 26.8 µM | Potency [8]: active: 2.37 µM | Potency [9]: inconclusive: 1.33 µM [inhibitor, partial curve, poor fit] | Potency [10]: inconclusive: 1.51 µM [rising, full curve, poor fit] | Potency [11]: active: 3.38 µM | Potency [12]: active: 3.01 µM [inconclusive] | Potency [13]: inconclusive: 5.31 µM [inhibitor, full curve] | Potency [14]: inconclusive: 8.41 µM [falling, full curve] | Potency [15]: inconclusive: 29.8 µM [cytotoxic, single point] | Potency (Aromatase (Homo sapiens)): inconclusive: 21.1 µM [inhibitor, partial curve, poor fit] | Potency [16]: inconclusive: 2.98 µM [cytotoxic, full curve] | Potency [17]: inconclusive: 6.01 µM [fluorescent]

Clc1ccc2c(c1)C(c1ccccc1)=NCc1nncn1-2
Potency [1]: inactive | Potency [2]: inactive | Potency [4]: inactive | Potency [18]: inconclusive: 23.7 µM [rising, partial curve, poor fit] | activity change, negative = inhibition [6]: inconclusive: -30.7% | Potency [13]: inactive

C[C@]12CCC(=O)C[C@@H]1CC[C@@H]1[C@@H]2CC[C@@]2(C)[C@H]1CC[C@]2(C)O
Potency [19]: inconclusive: 13.3 µM [cytotoxic, partial curve] | Potency [2]: inconclusive: 4.22 µM [full curve] | Potency [4]: active: 8.49 µM | Potency [20]: inconclusive: 6.68 µM [inhibitor, full curve] | Potency [10]: inconclusive: 1.34 µM [activator, full curve]

NC1=NC(=O)N2CC12 (configuration not stated)
activation [1]: inconclusive: 5.3% | Potency [13]: inactive | Potency [17]: inactive

Reference: PubChem BioAssay (Tox21)
